# PubChem BioAssay AID686970 (National Center for Advancing Translational Sciences (NCATS), 2013)
# Among all 360,000 compounds or so, about 6,000 (1.7%) were called active. The shares of active, inactive and inconclusive entries below differ from those in the screen. Calls come from the whole dose curve; as a rule, active = well fitted cell-killing curve with a large enough effect; inconclusive = small, poorly fitted or top-dose-only effect, or effect the other way; inactive = flat fitted curve, though single readings scatter. No potency is given beside an inconclusive call; the fits are too rough.
# Assay: qHTS for induction of synthetic lethality in tumor cells producing 2HG: qHTS for the HT-1080-NT fibrosarcoma cell line;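 note: NT is the 2HG producing partner of a matched IDH1 knockdown line; nearly all actives have a fitted effect of over 55% in size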;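 for activity, negative = less viability: 0% = DMSO-treated cells and -100% = media-only wells without cells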
# Details: HT-1080-NT fibrosarcoma viability, CellTiter-Glo ATP luminescence, 48 h; activity, negative = less viability: at 46.1 µM (top of the series) unless noted
# Outline: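 Luminescent CellTiter-Glo readout after 48 hours of compound exposure at 37 degrees C defined viability of HT-1080-NT cells. Activity was normalized to DMSO wells and cell-free media wells; concentration-response curves were fitted and assigned curve classes.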
# Potency is the fitted concentration of half-maximal effect; tags give direction and shape of the fitted curve.
SMILES,Potency,"activity, negative = less viability"
COc1ccccc1N1CCN(C(=O)c2ccc(-c3ccc(Cl)cc3)o2)CC1,active: 7.31 µM,–
COc1ccc(O)c(/C=N/Nc2nc(Nc3ccccc3)nc(-n3nc(C)cc3C)n2)c1,"inconclusive [cytotoxic, single point]",–
CCOC(=O)c1cc2ccccc2n1C1CCN(CCc2ccccc2)CC1,"inconclusive [cytotoxic, single point]",–
Nc1nc(C2CCCN2S(=O)(=O)c2ccc(Cl)cc2)cs1 (stereo not given),inactive,–
CCSc1nnc(NC(=O)c2cnccn2)s1,inactive,–
O=C(NC(NC(=S)Nc1ccc(Cl)cc1)C(Cl)(Cl)Cl)c1ccco1 (stereo not given),"inconclusive [cytotoxic, single point]",–
O=C(Cc1ccc(S(=O)(=O)N2CCOCC2)s1)Nc1cc(C(F)(F)F)cc(C(F)(F)F)c1,"inconclusive [cytotoxic, single point]",–
COc1cc(O)oc1C=Nc1ccc(C(=O)O)cc1,"inconclusive [cytotoxic, single point]",–
CCN(CC)CCSc1nnc2c3ccccc3n(Cc3ccccc3)c2n1,"inconclusive [cytotoxic, partial curve]",–
O=C(COC(=O)c1cc(=O)[nH]c2ccccc12)Nc1ccc(F)cc1,inactive,–
COCCCNc1nc(-c2ccc(Cl)cc2)nc2ccccc12,"inconclusive [cytotoxic, single point]",–
Cc1ccc(S(=O)(=O)Nc2cccc(-c3ccc4nnc(C)n4n3)c2)s1,inactive,–
C/C(=N\NC(=O)c1ccccc1O)c1c(O)cc(C)oc1=O,"inconclusive [cytotoxic, single point]",–
Fc1ccc(-c2nnc(SCc3cccnc3)o2)cc1,inactive,–
CCC(C)NCCCOc1c(C)cc(C)cc1Br (stereo not given),"inconclusive [cytotoxic, single point]",–
c1ccc(-c2cc3nc(NCC4CC4)nc(NCC4CCCCC4)c3s2)cc1,active: 3.26 µM,–
O=C(NC(NC(=S)Nc1ccc(Cl)c(Cl)c1)C(Cl)(Cl)Cl)c1ccco1 (stereo not given),"inconclusive [cytotoxic, single point]",–
O=[N+]([O-])c1cc(-c2nnc(Nc3ccc(O)cc3)c3ccccc23)ccc1N1CCOCC1,"inconclusive [cytotoxic, single point]",–
O=S(=O)(O)c1cc(O)c2cc(Nc3ccccc3)ccc2c1,inactive,–
CC(=O)N(C)C(c1ccc(N(C)C)cc1)c1nnnn1-c1c(C)cccc1C (stereo not given),inactive,–
CCCCC[C@H](C)N1C[C@@H](COCc2ccccc2)Oc2cc(N3CC[C@@H](O)C3)ccc2S1(=O)=O,"inconclusive [cytotoxic, single point]",–
Clc1ccc(CN2CCN(c3ncccn3)CC2)c(Cl)c1,"inconclusive [cytotoxic, single point]",–
COc1ccc(N2CCc3c(C)nc4c(OC)cc(OC)cc4c32)cc1,"inconclusive [cytotoxic, partial curve]",–
CCC(=O)Nc1cc(-c2nnc(OC)c3ccccc23)ccc1N1CCOCC1,inactive,–
COc1ccc2c(-c3ccc(S(N)(=O)=O)cc3)c(-c3ccc(S(C)(=O)=O)cc3)sc2c1,active: 23.1 µM,–

SMILES,Potency,"activity, negative = less viability"
CCCOC(=O)NC1CCS(=O)(=O)C1 (stereo not given),inactive,–
Cc1c(F)cccc1NS(=O)(=O)c1ccc2c(c1)n(C)c(=O)c(=O)n2C,inactive,–
O=C1NC[C@H](Cc2ccccc2)N(CC2CCN(CCc3ccc(-c4ccccc4)cc3)CC2)C1=O,inactive,–
CC[C@@H](C)[C@@H](C(=O)N1CCNCC1)n1cc(CCC(=O)O)nn1,inactive,–
COc1ccc(-c2ccc(C(=O)NCc3ccc(C(F)(F)F)cc3)c3occc23)c(C)c1,–,inconclusive: -30.1% [cytotoxic]
CCCOC(=O)c1ccc(-c2ccc(C=O)o2)cc1,inactive,–
Cc1ccc(NC(=O)C2(C)CCN2C2Cc3ccccc3C2)cc1 (stereo not given),"inconclusive [cytotoxic, single point]",–
CCN(CC)CCn1c(=N)n(CCOc2ccccc2)c2ccccc21,active: 11.2 µM,–
O=C(Nc1nc2ccccc2s1)C1CCN(C(=O)c2ccco2)CC1,"inconclusive [cytotoxic, partial curve, poor fit]",–
Cc1cccc(-n2c(=O)c(C#N)cc3c(=O)n4ccccc4nc32)c1,inactive,–
O=C(Nc1sc2c(c1C(=O)O)CCCCC2)c1ccco1,"inconclusive [cytotoxic, single point]",–
CO/N=C/c1ccc(OC)c(Oc2nc(OC)cc(OC)n2)c1,"inconclusive [cytotoxic, partial curve]",–
O=C1CC[C@@H](O)CCN1CC[C@H](Sc1ccc(Br)cc1)c1ccccc1,inactive,–
COCCCNC(=O)c1ccc(Cn2c(=O)c3ccccc3n(Cc3ccccc3C#N)c2=O)cc1,"inconclusive [cytotoxic, single point]",–
COc1ccc2c(c1)[nH]c1c(=O)n(Cc3ccco3)cnc12,"inconclusive [cytotoxic, single point]",–
Cn1ncc2c(Nc3ccc(-c4ccccc4)cc3)ncnc21,active: 11.2 µM,–
Cc1cc(-c2ccccc2)nc(N/N=C/c2ccc(O)cc2)n1,"inconclusive [cytotoxic, partial curve]",–
CCN1CCN(c2cc(-c3ccccc3)nc3cc(-c4cccc(F)c4)nn23)CC1,active: 23.1 µM,–
O=C1Cc2cc(S(=O)(=O)Nc3ccccc3Cl)cc3c2N1CCC3,inactive,–
O=CNc1cc(-c2ccc(C(=O)N3CCOCC3)cc2)cn2c(-c3ccc(F)cc3)cnc12,"inconclusive [cytotoxic, partial curve]",–
COCCNc1ncnc2c1ncn2[C@H]1CN(Cc2ccc(OC)cc2)C[C@@H](CO)O1,–,inconclusive: 33.2%
CCN(Cc1nc(-c2cccc(Cl)c2)no1)CC1CCCO1 (stereo not given),"inconclusive [cytotoxic, single point]",–
CC(C)(C)c1ccc(CSc2nnc(-c3ccccn3)n2Cc2ccco2)cc1,"inconclusive [cytotoxic, single point]",–
O=C1C(=Cc2ccccn2)CCc2ccccc21,"inconclusive [cytotoxic, single point]",–
CCN(CC)c1ccc(/C=C2/SC(=O)N(C(C)C)C2=O)o1,active: 13 µM,–

SMILES,Potency,"activity, negative = less viability"
CCCCn1c(NC(=O)c2ccccc2)c(C#N)c2nc3ccccc3nc21,active: 8.91 µM,–
COc1ccc(OC)c(C2C(C#N)=C(N)Oc3c2c(C)nn3-c2cccc(Cl)c2)c1 (stereo not given),"inconclusive [cytotoxic, single point]",–
CC(=O)Nc1cccc(NC(=O)CSc2ncc(C(=O)Nc3ccc(F)cc3)c(=O)n2C)c1,"inconclusive [cytotoxic, partial curve]",–
COc1cc(-c2cc(NC=O)c3ncc(-c4ccc(C(C)=O)cc4)n3c2)ccc1O,"inconclusive [cytotoxic, partial curve]",–
CSc1ccccc1CNc1nc(NCC2CC2)nc2ccsc12,active: 18.4 µM,–
CC(C)c1ccc(N2C(=NC(=O)C3CCCO3)SC3CS(=O)(=O)CC32)cc1 (stereo not given),inactive,–
COCC(C)NC(=O)C(C)N1c2cccc3cccc(c23)S1(=O)=O (stereo not given),inactive,–
CN(C)c1ccc(/C=N/NC(=O)C2COc3ccccc3O2)o1 (stereo not given),–,inconclusive: -2.07% [cytotoxic]
CC(C)Nc1nc2nonc2nc1Nc1ccccc1,inactive,–
CCC(C)C(=O)Nc1nnc(CCc2ccccc2)s1 (stereo not given),inactive,–
Cc1ccccc1C(=O)c1cccn1CC(=O)NCCCN1CCc2ccccc2C1,"inconclusive [cytotoxic, partial curve]",–
O=C(O)c1ccc(CNS(=O)(=O)c2ccc3ccccc3c2)cc1,–,inconclusive: 30.1%
O=C(CSc1nnc2c(n1)[nH]c1ccc(F)cc12)NCc1ccc(F)cc1,inactive,–
COc1cc(C2C(=O)c3ccccc3C2=O)ccc1O,inactive,–
CCc1cc(/C(Cc2ccccn2)=N\O)c(O)cc1O,"inconclusive [cytotoxic, single point]",–
Cn1c(CSCc2ccc(F)cc2)nnc1SCC(=O)Nc1nccs1,inactive,–
CCCN(CC(=O)Nc1ccc(Cl)cc1Cl)C(=O)/C=C/c1ccco1,"inconclusive [cytotoxic, single point]",–
Cc1ccc2nc(-c3ccc(NC(=S)NC4CC(C)(C)NC(C)(C)C4)cc3)sc2c1,active: 23.1 µM,–
CCCN1C(=O)/C(=C/c2ccccc2OCc2ccc(C(=O)O)cc2)NC1=S,inactive,–
COc1ccc(CNC(=O)C2Cc3c(-c4cccc(C(C)=O)c4)ccnc3O2)cc1OC (stereo not given),inactive,–
O=C(CCCCC(=O)NN=Cc1ccccc1O)NN=Cc1ccccc1O,"inconclusive [cytotoxic, full curve, poor fit]",–
CCOC(=O)C1=C(CSc2nc3ccccc3s2)NC(=O)NC1c1cc(C)ccc1C (stereo not given),"inconclusive [cytotoxic, single point]",–
O=C(Nc1nnc(-c2ccc3c(c2)CCCC3)o1)c1ccccc1,"inconclusive [cytotoxic, single point]",–
Cc1cc(Cl)ccc1C(O)c1ncc(-c2ccc3ccccc3c2)[nH]1 (stereo not given),"inconclusive [cytotoxic, single point]",–
C#CCOCCOCCOCCNc1nc(N2CCN(C(=O)CCCCCCCCCCNC(=O)[C@H]([C@@H](C)CC)n3cc(CCCCCN)nn3)CC2)nc(N2CCN(C(=O)CCCCCCCCCCNC(=O)[C@H](CO)n3cc(CCCCCN)nn3)CC2)n1,"inconclusive [cytotoxic, single point]",–
